Experimental findings from US20250115594A1, “ANTIBACTERIAL AGENTS: SOLUBLE SALTS AND AQUEOUS FORMULATIONS OF PYRONINS” (priority 2018, published 2025) are described below.

Where two headings read alike, the source gives them in different places.

For test [1], the system named is methicillin-resistant Staphylococcus aureus (MRSA) strain BAA-1707. Kind of test: Mouse model of Staphylococcus aureus lung infection (neutropenic pneumonia model). Format: in vivo. Particulars: 5% dextrose, 10 mM sodium phosphate, minimum dose giving ≥2 log reduction in bacterial burden. Here is the method: Female Swiss Webster mice (0.18-0.20 kg) were rendered immunosuppressed by oral gavage for 4 days with cyclophosphamide and were infected by intranasal administration of 1×10^8 colony forming units of methicillin-resistant Staphylococcus aureus (MRSA) strain BAA-1707 (USA-400, MW2). Test compounds in vehicle (5% dextrose in 10 mM sodium phosphate, pH 8.25), positive control in vehicle (vancomycin at 100 mg/kg), and negative control (vehicle only), were administered by intravenous injection into a tail vein (200 μl) 1 h post-infection to provide single intravenous doses of 25, 50, amd 100 mg/kg or by oral gavage (200 μl) 1 h post-infection to provide oral doses of 100, 200, and 400 mg/kg. Mice were euthanized and lungs were harvested and homogenized 24 h post-infection; and viable bacteria were quantified. The effective dose (ED(2 log)) was defined as the minimum test-compound dose resulting in ≥2 log reduction in bacterial burden.

Test [2] has the same test system. Put plainly: Mouse model of Staphylococcus aureus systemic infection (peritonitis model). Particulars: single dose, 5% dextrose, 10 mM sodium phosphate, pH 7.4, 50% survival at 72 h, read-out: in vivo antibacterial activity: mouse MRSA peritonitis ED50. Here is the method:
Female Swiss Webster mice ([…]) were experimentally infected by intraperitoneal administration of 1×10^7 colony forming units of methicillin-resistant Staphylococcus aureus (MRSA) strain BAA-1707 (USA-400, MW2) in 5% hog gastric mucin. Test compounds in vehicle (5% dextrose in 10 mM sodium phosphate, pH 7.4), positive control in vehicle (linezolid at 12.5 mg/kg), and negative control (vehicle only), were administered by intravenous injection into a tail vein (200 μl) 0 h post-infection to provide single intravenous doses of 1.56, 3.125, 6.25, 12.5, 25, and 50 mg/kg or by oral gavage (400 μl) 1 h pre-infection to provide single oral doses of 3.125, 6.25, 12.5, 25, 50, and 100 mg/kg. Survival was monitored for 72 h post-infection. Identities of test salts and controls were blinded from personnel performing injections and monitoring survival. The effective dose 50 (ED50) was defined as the test-compound dose resulting in 50% survival at 72 h (calculated using the probit method).

Turning to `[2H]C([2H])([2H])OC(=O)N/C=C/CCCc1cc([O-])c(C(=O)/C(C)=C/c2cnc(Oc3ccc(F)cc3)s2)c(=O)o1.[Na+]` [Example 9], the “in vivo antibacterial activity: mouse MRSA pneumonia ED(2 log)” value in test [1] (intravenous, single dose, pH 8.25) came to 25 mg/kg; in test [1] (oral, pH 7.4) it was 100 mg/kg. The ED50 in test [2] (intravenous) and in test [2] (oral) was 10 mg/kg in each case.
